PubChem BioAssay AID651687 (Broad Institute, 2012)
The whole screen tested about 350,000 compounds, of which about 600 (0.17%) were called active. This list was built around the results that the source calls inconclusive (neither active nor inactive); the mix of calls is not that of the screen.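 How the source made its calls: active means every replicate shows inhibition of at least 40%; inconclusive means mean inhibition at least 40% but some replicate below; inactive means the rest.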 A structure can be active in one record and inactive in another.

Experiment: inhibitors of PGC1a acetylation signal, primary screen, cell-based, U2OS, AlphaScreen, inhibitor mode (AID 651687);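 further: 0% = neutral control wells and 100% = positive control wells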
Conditions: AlphaScreen anti-acetyl-lysine, at 15.6 µM, active compounds read high, with virally co-expressed GCN5 acetyltransferase

Row | SMILES | inhibition
1 | C=CCn1c(C)nnc1SCC(=O)NC1CC1 | inconclusive: 50.2%
2 | CO[C@H]1CN(C)C(=O)c2cc(NS(=O)(=O)c3cn(C)cn3)ccc2OC[C@@H](C)NC[C@H]1C | inconclusive: 55.1%
3 | Cc1c(OCc2ccc(C(=O)O)cc2)ccc2c(-c3ccccc3)cc(=O)oc12 | inconclusive: 44%
4 | CC(=O)ON=C1C=CC(=C(C#N)c2ccccc2)C=C1 | inconclusive: 41%
5 | COC(=O)c1cc(Cl)c(NS(=O)(=O)c2ccccc2)cc1OC | inconclusive: 48.3%
6 | C[C@H]1CN([C@@H](C)CO)C(=O)Cc2cc(NC(=O)NC3CCCCC3)ccc2O[C@@H]1CN(C)Cc1ccc2c(c1)OCO2 | inactive: -3.31%
7 | CNc1ccc2ncc(-c3ccc(OC)c(OC)c3)n2n1 | active: 58.3%
8 | COc1ccc(CNC(=O)c2cc3c(c(-c4cccc(-c5ccc(C#N)cc5)c4)n2)[C@@H](CCO)N([S@](=O)C(C)(C)C)C3)cc1 | inactive: -19.3%
9 | Cc1nc(NCCc2ccccc2)c2nnn(Cc3ccccc3Cl)c2n1 | inconclusive: 42.2%
10 | CCCc1cc(=O)oc2cc(C)cc(O)c12 | inconclusive: 42.9%
11 | NC(=O)N/N=C\c1cccs1 | active: 76.7%
12 | NC(=O)c1oc2ccccc2c1NC(=O)C1CC(=O)N(c2ccccc2)C1 (stereo not given) | inconclusive: 42.1%
13 | Cc1noc(C)c1S(=O)(=O)N1CCCC(C(=O)NCC2CCCO2)C1 (stereo not given) | inconclusive: 50.1%
14 | O=C(NCc1csc(-c2cccs2)n1)c1cccc(Cl)c1 | inconclusive: 43.1%
15 | Cc1noc(C)c1S(=O)(=O)Nc1ccc2c(c1)C(=O)N([C@@H](C)CO)C[C@@H](C)[C@@H](CN(C)Cc1ccc3c(c1)OCO3)OCCCC[C@@H](C)O2 | inconclusive: 41.1%
16 | OC[C@@H]1CN(Cc2ccccc2)C[C@H](n2cnc3c(NCc4ccc(F)cc4)ncnc32)O1 | inconclusive: 43.8%
17 | Cc1c(NC(=O)c2ccccc2NS(=O)(=O)c2ccc(Br)cc2)c(=O)n(-c2ccccc2)n1C | inconclusive: 42.1%
18 | Cc1cc(C)cc(C(=O)Nc2ccc3[nH]c(=O)[nH]c3c2)c1 | inconclusive: 47.6%
19 | COc1ccc(CN2CCn3ncc(C(=O)Nc4ccccc4)c3C2=O)cc1 | active: 129%
20 | C=CCn1c(=O)/c(=C\c2ccccn2)s/c1=C(/C#N)C(=O)NCC1CCCO1 (stereo not given) | inactive: 4.13%
21 | C#CCN([C@H](/C=C/C1CC1)[C@@H](O)Cc1ccccc1)[C@@H](Cc1ccccc1)C(=O)OC | inactive: -48.5%
22 | Cc1cc(C)n(CCc2nc3c4ccccc4n(CC#N)c(=O)n3n2)n1 | inconclusive: 41.5%
23 | O=C1C2C3CCC(C3)C2C(=O)N1CNc1ccc(F)cc1 (stereo not given) | inconclusive: 46.6%
24 | Cc1ccc(-c2csnn2)cc1 | inconclusive: 50.6%
25 | CCC(=O)N(C)C[C@@H]1Oc2cc(C#CC(C)(C)O)ccc2S(=O)(=O)N([C@@H](C)CO)C[C@H]1C | inactive: 7.02%

Row | SMILES | inhibition
26 | CNC[C@@H]1OCCCC[C@H](C)Oc2ccc(NS(=O)(=O)c3cccs3)cc2C(=O)N([C@H](C)CO)C[C@@H]1C | inconclusive: 58.7%
27 | CO[C@@H]1CN(C)C(=O)c2ccc(NC(C)=O)cc2OC[C@@H](C)N(C(=O)Cc2cccnc2)C[C@@H]1C | inconclusive: 46.9%
28 | C[C@H]1CN([C@@H](C)CO)C(=O)c2cc(NS(=O)(=O)c3ccccc3)ccc2O[C@H]1CN(C)Cc1ccc(Oc2ccccc2)cc1 | inactive: 4.8%
29 | COc1ccc(S(=O)(=O)NNC(=O)c2csc(-n3nc(C)cc3C(F)(F)F)n2)cc1 | inconclusive: 53.8%
30 | Cc1ccc(C)c(NC(=O)c2nnn(Cc3ccccc3)c2N)c1 | inconclusive: 46.8%
31 | CN1CCN(CCP(=O)(c2ccccc2)c2ccccc2)CC1 | inconclusive: 40.8%
32 | CCCCCCCCC(=O)O | active: 65.6%
33 | COc1ccc(C(=O)Sc2nncc3ccccc23)cc1 | inconclusive: 42.2%
34 | CC(C)C#Cc1ccc([C@@H]2[C@H]3CN(C(=O)NC4CCCC4)CC(=O)N3[C@H]2CO)cc1 | inconclusive: 48.3%
35 | COc1ccc(-c2ccc(CCC(=O)O)n2NC(=O)c2ccc(C(C)(C)C)cc2)cc1 | active: 43.5%
36 | C[C@H](CO)N1C[C@H](C)[C@@H](CN(C)Cc2ccccc2F)Oc2ncc(Br)cc2C1=O | active: 63.8%
37 | COCCCNC1CS(=O)(=O)CC1O (stereo not given) | inconclusive: 45.4%
38 | COc1ccccc1-c1ccc([C@@H]2C[C@H]3[C@H](CON3C)CN2C(=O)c2ccco2)cc1 | inactive: -0.538%
39 | C[C@H](CO)N1C[C@H](C)[C@H](CN(C)Cc2ccc(C(=O)O)cc2)Oc2ccc(NC(=O)Nc3cccc4ccccc34)cc2CC1=O | inactive: 1.89%
40 | O=C(Cc1ccc(O)cc1)N/N=C/c1cccnc1 | inactive: 3.78%
41 | Cc1no[n+]([O-])c1COc1cccc(/C=N/Nc2nncn2N)c1 | active: 50.2%
42 | CNC[C@@H]1OCCCC[C@@H](C)Oc2ccc(NC(=O)CCC(F)(F)F)cc2C(=O)N([C@@H](C)CO)C[C@@H]1C | inactive: 4.22%
43 | Cc1ccc(-c2ccc3c(c2)O[C@@H](CN(C)C(=O)C2CCCCC2)[C@H](C)CN([C@H](C)CO)S3(=O)=O)cc1 | inconclusive: 41.6%
44 | CN1C(=O)c2ccccc2C(C(=O)O)C1c1cccc([N+](=O)[O-])c1 (stereo not given) | inconclusive: 43.6%
45 | Cn1ncc2c(O/N=C(\N)c3ccc(C(F)(F)F)cc3)ncnc21 | inconclusive: 43.5%
46 | COc1ccc(/C=N/NC(=O)c2ccn[nH]2)cc1CN1CCOCC1 | inconclusive: 43.2%
47 | Cc1ccc(S(=O)(=O)N(C)C[C@@H]2OCCCC[C@@H](C)Oc3ccc(NS(C)(=O)=O)cc3C(=O)N([C@H](C)CO)C[C@H]2C)cc1 | inactive: 3.06%
48 | CCC(=O)N(C)C[C@@H]1Oc2ncc(-c3ccc(C(=O)N(C)C)cc3)cc2C(=O)N([C@H](C)CO)C[C@@H]1C | inconclusive: 58.8%
49 | CC(C)C(NC(=O)c1ccc(C(C)(C)C)cc1)C(=O)O (stereo not given) | inconclusive: 52.6%
50 | c1ccc(Sc2ccccn2)cc1 | active: 75.8%
